{
  "source": "PubChem BioAssay",
  "note": "This list was built around the results that the source calls inconclusive (neither active nor inactive); the mix of calls is not that of the screen. Potencies beside an inconclusive call are fits to weak or partial responses and may not hold up. Active and inactive are the calls of the source. The limit is not given here; nearly all actives have AC50 up to about 26 µM.",
  "data": [
    {"assay": "JHH-DIPG-1 glioma cell viability, MIPE5.0 library, CellTiter-Glo luminescence, qHTS (AID 1347067);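 also: cells exposed to compound for 48 hours before readout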", "settings": "JHH-DIPG-1 glioma viability, CellTiter-Glo ATP luminescence", "values": [
      {"smiles": "COC1=C[C@@H]2[C@@H]3Cc4ccc(OC)c(O)c4[C@]2(CCN3C)CC1=O", "outcome": "inactive"},
      {"smiles": "CCC1(c2ccc(N)cc2)CCC(=O)NC1=O", "note": "(configuration not stated)", "outcome": "inactive"},
      {"smiles": "C[C@]12CC[C@H]3[C@@H](CCC4=CC(=O)CC[C@@]43C)[C@@H]1CC[C@@H]2OC(=O)CCC1CCCC1", "AC50": "inconclusive: 33.2 µM [cytotoxic]"},
      {"smiles": "O=c1[nH]c2ccccc2n1C1CCN(Cc2ccc(-c3[nH]c4cc5ncnc5cc4nc3-c3ccccc3)cc2)CC1", "AC50": "inconclusive: 20.9 µM [cytotoxic]"},
      {"smiles": "CC(C)(O)C(=O)Nc1ccc([N+](=O)[O-])c(C(F)(F)F)c1", "AC50": "inconclusive: 20.9 µM [cytotoxic]"},
      {"smiles": "C[C@]12CC[C@H]3[C@@H](CCC4=CC(=O)CC[C@@H]43)[C@@H]1CC[C@@H]2OC(=O)CCc1ccccc1", "AC50": "inconclusive: 26.3 µM [cytotoxic]"},
      {"smiles": "CCNC(=O)C[C@@H]1N=C(c2ccc(Cl)cc2)c2cc(OC)ccc2-n2c(C)nnc21", "outcome": "inactive"},
      {"smiles": "Cn1c(CCCC(=O)O)nc2cc(N(CCCl)CCCl)ccc21", "AC50": "inconclusive: 33.2 µM"},
      {"smiles": "Cc1c(C(=O)Nc2cccc(C(F)(F)F)c2)cc(-c2ccccc2)n1CCCN1CCOCC1", "AC50": "inconclusive: 23.5 µM [cytotoxic]"},
      {"smiles": "Cc1sc2c(c1C)C(c1ccc(Cl)cc1)=N[C@@H](CC(=O)OC(C)(C)C)c1nnc(C)n1-2", "AC50": "active: 16.6 µM"},
      {"smiles": "O=C(N[C@@H](COc1ccc2[nH]c(=O)[nH]c2c1)c1ccccc1)c1cccn(Cc2ccc(F)c(F)c2)c1=O", "AC50": "active: 16.6 µM"},
      {"smiles": "CCN(CC)C(=O)c1ccc(C2=CC3(CCNCC3)Oc3cccc(O)c32)cc1", "outcome": "inactive"},
      {"smiles": "CN(C)CCN(C)CCc1ccc(Cl)c(Cl)c1", "AC50": "inconclusive: 7.42 µM"},
      {"smiles": "C=C[C@H]1CN2CCC1C[C@@H]2[C@@H](O)c1ccnc2ccccc12", "note": "(some centres not stated)", "outcome": "inactive"},
      {"smiles": "O=C(O)C(=O)c1cn(Cc2ccccc2)c2ccc(-c3ccc(OC(F)(F)F)cc3)cc12", "outcome": "inactive"},
      {"smiles": "Cn1cc(C2=C(c3cn(C4CCN(Cc5ccccn5)CC4)c4ccccc34)C(=O)NC2=O)c2ccccc21", "AC50": "inconclusive: 16.6 µM [cytotoxic]"},
      {"smiles": "COC1(CS(=O)c2ccccc2)CCN(CCc2c[nH]c3ccc(F)cc23)CC1", "note": "(configuration not stated)", "outcome": "inactive"},
      {"smiles": "CO/C1=C/C(C)=C\\[C@@H](C)[C@@H](O)[C@@H](C)C/C(C)=C\\C=C/[C@H](OC)[C@@H]([C@@H](C)[C@@H](O)[C@H](C)[C@@]2(O)C[C@@H](O)[C@H](C)[C@@H](C(C)C)O2)OC1=O", "AC50": "active: 9.86 µM"},
      {"smiles": "CCCCCC[C@H]1C(=O)O[C@H](C)[C@H](NC(=O)c2cccc(NC=O)c2O)C(=O)O[C@@H](C)[C@@H]1OC(=O)CC(C)C", "AC50": "inconclusive: 10.5 µM [cytotoxic]"},
      {"smiles": "CN1[C@@H]2CC(O)C[C@H]1[C@@H]1O[C@@H]12", "note": "(some centres not stated)", "outcome": "inactive"},
      {"smiles": "C[C@](O)(COc1ccc(C#N)cc1)C(=O)Nc1ccc(C#N)c(C(F)(F)F)c1", "AC50": "inconclusive: 37.2 µM [cytotoxic]"},
      {"smiles": "C[C@@H]1O[C@@H](O[C@H]2C[C@@H](O)[C@]3(CO)[C@H]4[C@H](O)C[C@]5(C)[C@@H](C6=CC(=O)OC6)CC[C@]5(O)[C@@H]4CC[C@]3(O)C2)[C@H](O)[C@H](O)[C@H]1O", "AC50": "active: 0.0186 µM"}
    ]}
  ]
}
